The other results are listed elsewhere or left out.
The sequences below were run on PF3D7_0420300 AP2 domain 1 (GST-tagged) (assay: gcPBM binding intensity (ln(normalized median fluorescence intensity)); higher = stronger DNA binding).
Procedure, shortened: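 An Agilent 4 × 180k array carrying primer-extended double-stranded 36-bp intergenic genomic probes and negative controls received GST-tagged P. falciparum DNA-binding domains expressed in E. coli, about 25 μg on average, for 1 h. The binding buffer contained 1× PBS, 1% milk, 0.2 mg/ml BSA, 0.5% salmon testes DNA and 0.03% Triton X-100. Binding intensity is the top Masliner-normalised natural-log median intensity across replicate spots of either probe orientation, read after Alexa488 anti-GST antibody staining and a 488 nm scan.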

Sequence	gcPBM binding intensity (ln)
TGCTTATTTAGAATTGTGCACAGCGAATATTCTGTT	9.18
TACATTTATACTACTGCATTCAAAAAAAATAAAAAA [TGCATGCA_negctrl_site157]	8.94
TATAAAAAAATATATATATATATTATATGTGTAGAA [TGCATGCA_negctrl_site391]	9.3
ATTTATTTGAAGAATTGTACTAAATTATATAGCGGT [XGTACX_site4998]	9.24
TATATCAAAATACATACACACATTTGTATTTACATT [CACACA_site5485]	9.55
ATTTTAATTTGTTATACACACACAAAAAAAATTATA [CACACA_site9306]	9.51
TTTTTTTTTAATCATGCACACTGTTAAAAGAATAAA [CACACA_site4817]	8.84
AGAAAAGATAAAAATAGTACATATATATTTACTTAT [XGTACX_site7820]	9.22
TATATTATTTTTAGAAGTACTTATTGTTATAATTCT [XGTACX_site1015]	9.18
CTCCTTTCAAAAAAATGTACATGTTTACATTTCAAG [XGTACX_site7342]	8.99
TTATATATAATATGACGTACAATTATACATTTTATG [XGTACX_site7598]	9.15
ATAAATATTTATAACAGTACATATTTACTATCCTAA [XGTACX_site4497]	9.14
ACGATTAAATCGATAATACACACTAAATGTAAAACA [CACACA_site119]	9.36
TATACACATATTTTTACACACATATTTTTTCATATA [CACACA_site7244]	9.87
TGAATATTCATGTGTGTGCGCATGTTGTTAGACCAT [GTGCAC_site9869]	9.69
TAAATACATTTATGTACACACACATAGATGTATATT [CACACA_site5618]	9.52
TGTTTTCTTGATTATTGTACTTTAATTAGTAATATG [XGTACX_site8674]	9.44
AAAAATATTATAAGCACACATATATATATATATATA [CACACA_site2458]	9.21
TATAATATGTTATATACACACATTATAAAATACACA [CACACA_site6742]	9.5
TAATAATAAATAAAATGTACATATGAACAAATAAGT [XGTACX_site6710]	9.73
AAAAAAAAAATTAATTGTACTAAAAAAATATTATAT [XGTACX_site8903]	9.1
ACTGTCATTTATTGTAGTACGTCAATTTATTACATT [XGTACX_site2749]	9.65
TGTTACAAAAAATAATGTACTTAATATATATATATA [XGTACX_site1016]	9.09

Sequence	gcPBM binding intensity (ln)
TATCTTCATTTTTTTGGTACGCACGCAAATATGGCT [XGTACX_site3107]	9.16
TTTAATTTTTATATAACACACATATTGGAATTATGT [CACACA_site734]	9.26
TTTTTTACATACAGAAATATATAATATAAAATAAAT [GTGCAC_negctrl_site278]	9.02
TTAAATGTGAAGTGAATACACACCTAATAAATATAA [CACACA_site3194]	9.18
TTATGTATTACCTGCCGTACTTCTAAAATAATTAAA [XGTACX_site1716]	9.32
ATATATTTACTTAATACACACAAAAAAAAAAAAAAA [CACACA_site3657]	9.13
TATAAATTTTGTTTAGCACACACACCGACATACATA [CACACA_site9033]	9.85
ATATATATATATATATGTACATACATACAATCATAT [XGTACX_site6410]	9.32
ATGTTGTACAGACACACACACAAAAAAAAAATAAAA [CACACA_site7184]	9.93
TATAATAGCTTCTTTACACACACCATTTTTTTTTTT [CACACA_site1456]	9.87
CTTACATATTACATATGTACATATACACCTTATGTC [XGTACX_site4679]	9.27
ATATATTTTTAATTTGCATGTAGTAAAGCCTTAAAT [TGCATGCA_site593]	9.1
CATCAAGTGAATTGTTGTACTTTACATTGTTTTTAT [XGTACX_site7261]	9.65
AATATCAATATTATATGTACTTATAATTTCAATGTA [XGTACX_site2423]	9.14
TAAATTTATTAATCAAGTACAAAATAAATTTTTATA [XGTACX_site2745]	8.91
TATATATAGAAACACACACACACATATATATATATA [CACACA_site4116]	9.96
AAAATTTAATATAATGCACACATAAAAAAAAAATCA [CACACA_site7882]	9.43
TAAAAAAGTTATATTACACACTTTATTGGTTAACTT [CACACA_site653]	9.35
ACATATAAATTATATACACACAATAATATATATATA [CACACA_site1384]	9.44
ATAATGTTTCTTTCAACACACAAAAAATGAACCCAT [CACACA_site4947]	9.61
TATTTATAAAAAAAATGTACATTTATGTATAAGCTA [XGTACX_site3266]	8.99
TATATATTATAAAAGAGTACAGAAAGAAAAAAAAAT [XGTACX_site8305]	9.54

From the supplement of paper PMC11417369
